# PMC4336329 (PLoS ONE, 2015)
# About 2,200 (0.71%) of roughly 310,000 compounds showed an effect of 50% or more. Effects have a minus sign here. The list shows a part of the results.
# Target: human ether-à-go-go-related gene (hERG) potassium channel (human, UniProt Q12809)
# Assay: primary screen, population patch clamp on CHO cells stably expressing hERG
# human ether-à-go-go-related gene (hERG) potassium channel, sequence (Q12809 whole entry, looked up): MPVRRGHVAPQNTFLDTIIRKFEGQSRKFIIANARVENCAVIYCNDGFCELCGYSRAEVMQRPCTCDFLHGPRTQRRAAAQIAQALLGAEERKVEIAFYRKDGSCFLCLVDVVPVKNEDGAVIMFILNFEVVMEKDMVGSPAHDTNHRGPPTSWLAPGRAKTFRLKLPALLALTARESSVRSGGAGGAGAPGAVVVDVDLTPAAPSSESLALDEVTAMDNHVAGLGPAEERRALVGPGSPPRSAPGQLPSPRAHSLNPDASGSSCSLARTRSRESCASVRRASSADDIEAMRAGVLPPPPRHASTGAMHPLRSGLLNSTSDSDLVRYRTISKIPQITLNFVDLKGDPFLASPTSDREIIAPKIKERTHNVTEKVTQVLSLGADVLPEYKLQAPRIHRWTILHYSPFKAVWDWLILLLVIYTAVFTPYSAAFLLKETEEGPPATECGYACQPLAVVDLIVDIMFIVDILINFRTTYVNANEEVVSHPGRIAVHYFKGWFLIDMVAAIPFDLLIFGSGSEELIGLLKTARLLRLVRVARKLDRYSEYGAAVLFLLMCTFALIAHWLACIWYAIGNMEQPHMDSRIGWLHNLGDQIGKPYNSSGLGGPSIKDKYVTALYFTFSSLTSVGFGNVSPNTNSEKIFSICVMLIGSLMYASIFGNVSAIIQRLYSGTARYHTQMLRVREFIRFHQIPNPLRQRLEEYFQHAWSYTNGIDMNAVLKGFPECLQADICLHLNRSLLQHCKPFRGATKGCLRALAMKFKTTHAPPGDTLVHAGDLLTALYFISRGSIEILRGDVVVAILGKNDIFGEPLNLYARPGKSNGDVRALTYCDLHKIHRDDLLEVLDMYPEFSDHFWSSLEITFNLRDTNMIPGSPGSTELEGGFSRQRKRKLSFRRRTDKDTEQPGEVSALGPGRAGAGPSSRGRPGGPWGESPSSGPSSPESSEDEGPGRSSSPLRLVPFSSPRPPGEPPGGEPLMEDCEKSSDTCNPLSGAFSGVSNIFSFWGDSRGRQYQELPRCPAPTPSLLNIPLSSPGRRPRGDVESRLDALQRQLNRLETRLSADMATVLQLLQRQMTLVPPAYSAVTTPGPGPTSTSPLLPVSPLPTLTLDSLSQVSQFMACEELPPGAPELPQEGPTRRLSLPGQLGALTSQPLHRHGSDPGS
row,Compound,"hERG current change (%, negative = inhibition) at 1uM"
1,O=C1Nc2ccc(S(=O)(=O)NCC3CCCO3)c3cccc1c23 (stereo not shown),5.44%
2,COc1ccc(S(=O)(=O)Nc2ccc(S(=O)(=O)Nc3cc(C)nc(C)n3)cc2)cc1OC,16.7%
3,COc1cccc(C(=O)Nc2cc([N+](=O)[O-])ccc2N2CCN(C)CC2)c1,-49.3%
4,CCOC(=O)c1c(Nc2ccccc2)sc(/C=C2\C=Nc3ccccc32)c1O,1.98%
5,Cc1ccccc1NC(=O)c1cccc(S(=O)(=O)N2CCCCC2)c1,1.16%
6,CCc1ccc(OCCn2ccnc2)cc1,12.8%
7,COC(=O)C1=C(O)/C(=C/c2ccc(OCC(=O)Nc3ccccc3)cc2)N=C1C,11%
8,O=C(N/N=C/c1ccsc1)c1ccc2c(c1)OCO2,11.9%
9,COc1ccc(C)cc1NC(=O)C(OC(=O)CNC(=O)c1ccc(Oc2ccccc2)cc1)c1ccccc1 (stereo not shown),15.6%
10,Cc1[nH]c2ccccc2c1C(=O)CSC(=S)N1CCN(C)CC1,10.1%
11,COCCn1c(=NC(=O)c2cc(-c3cccs3)nc3ccccc23)sc2cc(S(N)(=O)=O)ccc21,9.95%
12,CCC1=C(OC(=O)N(CC)CC)N2C(=O)OC(=NCCOC)[C@]2(Cc2ccccc2)[C@H]2C1=CC[C@H]1C(=O)N(CC)C(=O)[C@H]12,13.2%
13,Fc1ccc(CSc2ccc(-c3ccc4c(c3)OCO4)nn2)cc1,5.64%
14,CCOC(=O)c1c(N)c(C#N)cn1-c1ccccc1,3.2%
15,COc1ccc(OC)c(/C=N/c2oc(-c3ccco3)c(-c3ccco3)c2C#N)c1,16.9%
16,CSc1ncc(Cl)c(C(=O)Nc2cc(C)ccc2C)n1,12%
17,CCCCOC(=O)c1ccc(NC(=O)C(=O)NCCN(C)C)cc1,3.01%
18,CCOC(=O)c1c(NC(=O)c2ccco2)n(C2CCCCC2)c2nc3ccccc3nc12,-8.87%
19,COc1ccc(CCNC(=O)CCCNC(=O)Cn2cnc3sc(C)c(C)c3c2=O)cc1OC,7.88%
20,S=c1[nH]nc(Nc2cccc(Cl)c2)s1,16%
21,CCc1cccc(NC(=O)c2cccc(S(=O)(=O)N3CCN(C)CC3)c2)c1,-7.15%
22,CCCOc1ccc(CC2CCC(=O)NC2=O)cc1 (stereo not shown),-0.444%

row,Compound,"hERG current change (%, negative = inhibition) at 1uM"
1,CC(=O)OC1COC(n2ccc3ccccc32)C(OC(C)=O)C1OC(C)=O (stereo not shown),11.6%
2,O=C(O)/C=C/C(=O)Nc1ccc(SC(F)(F)C(F)(F)C(F)(F)F)cc1,31.8%
3,NNC(=O)c1ccc(COc2ccc3c(c2)CCC3)o1,0.612%
4,CCN(CC)CCOC(=O)C(O)(c1ccccc1)c1ccccc1.Cl,-3.02%
5,COc1ccc(CNC(=O)C2CCCN2C)cc1OC (stereo not shown),5.12%
6,CN(CC1COc2ccccc2O1)C(=S)NC1CCCCC1 (stereo not shown),3.41%
7,O=C(NCC(=O)N(c1cccnc1)C(C(=O)NC1CCCC1)c1cccs1)c1cccs1 (stereo not shown),18.7%
8,CCOC(=O)C1CCCN(CC(=O)c2ccc(F)cc2)C1.O=C(O)C(=O)O (stereo not shown),7.86%
9,Cc1[nH]c2ccccc2c1C(=O)CN1CCCC1,7.66%
10,O=c1c2ccccc2[nH]c(=S)n1-c1ccc2c(c1)OCCO2,11.7%
11,Cn1c(CSc2nc3ccccc3s2)nnc1SCC(=O)NCc1ccccn1,11%
12,CCC(C)[C@H](NC(=O)C1CCN(C(=O)[C@H](Cc2ccccc2)NS(=O)(=O)c2ccc(C)cc2)CC1)C(=O)O (stereo partly shown),16.1%
13,COc1ccc(NC(=O)C2CCCO2)c(OC)c1 (stereo not shown),14.6%
14,COc1cccc(SCC(=O)N2CCN(c3ccccc3)CC2)c1,5.88%
15,Cc1cc(=O)n2[nH]c(-c3cccc(Cl)c3)cc2n1,0.243%
16,COc1ccc(C2CC(c3cccs3)=NN2C(=O)CSC2=NN3CCCC(=O)N=C3S2)cc1 (stereo not shown),7.13%
17,c1ccc(CCC2Cc3ccccc3N2)cc1 (stereo not shown),18.4%
18,COCCOC(=O)C1=C(C)NC(=O)NC1c1c(OC)ncnc1OC (stereo not shown),8.55%
19,CCCn1c(=O)n(CC(=O)NCC2CCCO2)c(=O)c2c3c(sc21)COC(C)(C)C3 (stereo not shown),17%
20,Cc1ccc(NC(=O)CCOc2ccccc2)cc1S(=O)(=O)Nc1ccccc1Cl,4.04%
21,CS(=O)(=O)N(CC(=O)N1CCCCCC1)c1ccc2c(c1)OCCO2,11.8%
22,Cn1c(=O)c(C(=O)Nc2ccccn2)c(O)c2ccccc21,4.95%

row,Compound,"hERG current change (%, negative = inhibition) at 1uM"
1,O=C(O)c1cc(-c2ccc(Cl)s2)nc2ccccc12,23.9%
2,CC1CN(CCCOc2ccccc2[N+](=O)[O-])CC(C)O1.O=C(O)C(=O)O (stereo not shown),6.17%
3,COC(CNC(=O)c1cc(C(=O)c2c(-c3c(Cl)cccc3Cl)noc2C)c[nH]1)OC,4.89%
4,NS(=O)(=O)c1ccc2ccccc2c1,8.99%
5,CCCCN1C(=O)/C(=C2/C=CC=CN2C)SC1=S,4.89%
6,CN(c1ccc(C(=O)N2CCCCC2)cc1)S(=O)(=O)c1cccs1,11.7%
7,Cc1ccn2c(=O)nc(SCC(=O)NCc3ccc4c(c3)OCO4)nc2c1,-10.9%
8,CC(C)c1ccc(-c2csc(NC(=O)c3cccs3)c2C(=O)O)cc1,9.39%
9,C=CCOC(=O)C1=C(C)NC(SCC(=O)Nc2ccc(C)c(Cl)c2)=C(C#N)C1c1ccco1 (stereo not shown),8.57%
10,CC(C)OC(=O)/C(=C/c1ccco1)c1ccccc1,6.25%
11,O=C(/C=C/c1cccnc1)c1ccc(F)c(F)c1,15.9%
12,Cc1cc(NC(=O)c2cc3cccc([N+](=O)[O-])c3[nH]2)ccc1F,11.5%
13,O=C(O)CCCCn1c(SCc2cc(=O)n3cc(Cl)ccc3n2)nc2ccsc2c1=O,7.83%
14,COCCN(C(=O)CCC(=O)Nc1ccccn1)C(C(=O)NCCC(C)C)c1ccc(C)cc1 (stereo not shown),3.08%
15,Oc1ccc(Br)cc1-c1ccnn1-c1ccccc1,12.3%
16,CCCC(C)NC(=O)c1c2c(nc3ccccc13)CCC2 (stereo not shown),17.7%
17,Cc1nc2ccccc2c(-c2ccccc2)c1C(=O)c1ccccc1,14.7%
18,CN(C(=S)NC(=O)c1ccc(Br)o1)c1ccccc1,2.62%
19,O=c1cc(O)n(-c2ccccc2F)c(=S)[nH]1,9.1%
20,COc1cccc(-n2c(SCC(=O)O)nnc2-c2cccnc2)c1,3.82%
21,CSc1ncccc1C(=O)N1CCN(S(=O)(=O)c2ccc3ccccc3c2)CC1,-10.4%
22,COCCN(C(=O)CCC(=O)Nc1cc(C)on1)C(C(=O)NC1CCCC1)c1ccc(C(C)C)cc1 (stereo not shown),2.64%

row,Compound,"hERG current change (%, negative = inhibition) at 1uM"
1,CCOC(=O)c1ccc(NC2Nc3cc(C)nn3S2)cc1 (stereo not shown),6.64%
2,COc1cccc(CN(C)C(=O)c2cc(COc3ccc4ncccc4c3)on2)c1,9.2%
3,O=C(O)CSC1=NC(=Nc2cccc(Cl)c2)C2(CCCCC2)N1c1ccccc1,19.9%
4,O=C(O)c1ccc(CSc2nnc(SCc3ccccc3)s2)cc1,8.83%
5,Cc1noc(C)c1S(=O)(=O)N1CCCC(C(=O)c2cccc(OC(C)C)c2)C1 (stereo not shown),7.31%
6,O=C(CN1CCCCCC1)N/N=C/c1ccc(Cl)c(Cl)c1,-6.7%
7,Cc1cc(-c2ccccc2)c(C#N)c(N)n1,10.2%
8,CCN1C(=O)[C@H]2[C@@H](c3ccc(-c4ccc(OC)cc4)c(OC)c3)N3CCCC[C@@]3(C(=O)OC)[C@H]2C1=O.O=C(O)C(F)(F)F,12.4%
9,O=C(NCC1CCCN1S(=O)(=O)c1ccccc1)C(=O)NC1CC1 (stereo not shown),4.91%
10,CCOc1ccc2nc(SCC(=O)Nc3ccc4c(c3)OCCO4)[nH]c2c1,14%
11,COC(=O)C1=C(C)N(Cc2ccccc2)C(=O)N[C@H]1c1ccc(Br)cc1,2.38%
12,COc1ccc(Nc2ccc(N3C(=O)CCC3=O)cc2[N+](=O)[O-])cn1,-2.97%
13,Cc1ccc(C)c(NC(=O)C2CCN(C(=O)c3cccs3)CC2)c1,10.3%
14,COc1ccc(NC(=O)CSc2nnc(C)s2)cc1S(=O)(=O)N1CCOCC1,2.92%
15,COc1ccccc1CN1CC(C(=O)NCCN2CCOC2=O)CCC1=O (stereo not shown),9.66%
16,COc1ccc(CC(=O)OCC(=O)Nc2ccc(OC(F)F)cc2)cc1OC,-2.69%
17,COc1ccc(CC(=O)NNC(=O)c2ccc(Br)o2)cc1,-1.87%
18,CCN(CC)c1c([N+](=O)[O-])c(=O)sc2ccccc12,10.8%
19,Cc1ccc(S(=O)(=O)N2CC=C(C(=O)NC3CC3)CC2)cc1,7.92%
20,CCOC(=O)C1C(=O)CC(O)(c2ccccc2)CC1c1ccccc1 (stereo not shown),5.47%
21,O=C(Cn1nc(-c2ccccc2)ccc1=O)NCCN1CCN(c2cccc(Cl)c2)CC1,6.09%
22,Cn1c(CCNC(=O)c2ccco2)nc2cc(NC(=O)c3ccccc3Cl)ccc21,11.5%
